The list shows a part of the results.
Assays:
Test in all cases: glycan array binding signal (z-score within array); higher = stronger binding
Conditions in all cases: glycan notation: IUPAC condensed, linker removed
[1] = biological target: GalNAc(b1-4)GlcNAc(b1-2)Man
Procedure, shortened: (§1)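 Glycan array data came from 3228 arrays in the Consortium for Functional Glycomics database, and only arrays with an available protein sequence were kept. Glycan names were put into IUPAC-condensed notation, and columns mapping to the same glycan were averaged. The binding signal is a within-array Z-score, averaged across arrays of one protein sequence run at different concentrations or buffers and across linkers. A negative Z-score can be read as non-binding.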

[2] = biological target: GalNAc(b1-4)GlcNAc(b1-2)Man(a1-3)[GalNAc(b1-4)GlcNAc(b1-2)Man(a1-6)]Man(b1-4)GlcNAc(b1-4)GlcNAc
Procedure, shortened: as §1

[3] = biological target: GalNAc(b1-4)GlcNAc(b1-3)GalNAc(b1-4)GlcNAc
Procedure, shortened: as §1

GalNAc(b1-4)GlcNAc6S = biological target: GalNAc(b1-4)GlcNAc6S
Procedure, shortened: as §1

GalNAc(b1-6)GalNAc = biological target: GalNAc(b1-6)GalNAc
Procedure, shortened: as §1

GalNAc3S(b1-4)GlcNAc = biological target: GalNAc3S(b1-4)GlcNAc
Procedure, shortened: as §1

GalNAc3S(b1-4)GlcNAc3S = biological target: GalNAc3S(b1-4)GlcNAc3S
Procedure, shortened: as §1

[4] = biological target: GalNAc3S(b1-4)[Fuc(a1-3)]GlcNAc
Procedure, shortened: as §1

GalNAc4S6S(b1-4)GlcNAc = biological target: GalNAc4S6S(b1-4)GlcNAc
Procedure, shortened: as §1

GalNAc6S(b1-4)GlcNAc = biological target: GalNAc6S(b1-4)GlcNAc
Procedure, shortened: as §1

Glc(a1-4)Glc = biological target: Glc(a1-4)Glc
Procedure, shortened: as §1

[5] = biological target: Glc(a1-4)Glc(a1-4)Glc(a1-4)Glc
Procedure, shortened: as §1

Glc(a1-6)Glc(a1-6)Glc = biological target: Glc(a1-6)Glc(a1-6)Glc
Procedure, shortened: as §1

[6] = biological target: Glc(a1-6)Glc(a1-6)Glc(a1-6)Glc
Procedure, shortened: as §1

Glc(b1-4)Glc = biological target: Glc(b1-4)Glc
Procedure, shortened: as §1

Glc(b1-6)Glc = biological target: Glc(b1-6)Glc
Procedure, shortened: as §1

GlcA(b1-3)Gal = biological target: GlcA(b1-3)Gal
Procedure, shortened: as §1

GlcA(b1-3)GlcNAc = biological target: GlcA(b1-3)GlcNAc
Procedure, shortened: as §1

GlcA(b1-6)Gal = biological target: GlcA(b1-6)Gal
Procedure, shortened: as §1

[7] = biological target: GlcA3S(b1-3)Gal(b1-4)GlcNAc(b1-2)Man
Procedure, shortened: as §1

[8] = biological target: GlcA3S(b1-3)Gal(b1-4)GlcNAc(b1-3)Gal(b1-4)Glc
Procedure, shortened: as §1

[9] = biological target: GlcNAc(a1-3)Gal(b1-4)GlcNAc
Procedure, shortened: as §1

[10] = biological target: GlcNAc(a1-4)Gal(b1-3)GlcNAc
Procedure, shortened: as §1

[11] = biological target: GlcNAc(a1-4)Gal(b1-4)GalNAc
Procedure, shortened: as §1

[12] = biological target: GlcNAc(a1-4)Gal(b1-4)GlcNAc
Procedure, shortened: as §1

[13] = biological target: GlcNAc(a1-4)Gal(b1-4)GlcNAc(b1-3)Gal(b1-4)Glc
Procedure, shortened: as §1

[14] = biological target: GlcNAc(a1-4)Gal(b1-4)GlcNAc(b1-3)Gal(b1-4)GlcNAc
Procedure, shortened: as §1

[15] = biological target: GlcNAc(a1-4)Gal(b1-4)GlcNAc(b1-3)Gal(b1-4)GlcNAc(b1-3)Gal(b1-4)GlcNAc
Procedure, shortened: as §1

[16] = biological target: GlcNAc(a1-4)Gal(b1-4)GlcNAc(b1-3)Gal(b1-4)[Fuc(a1-3)]GlcNAc(b1-3)Gal(b1-4)[Fuc(a1-3)]GlcNAc
Procedure, shortened: as §1

[17] = biological target: GlcNAc(a1-6)Gal(b1-4)GlcNAc
Procedure, shortened: as §1

[18] = biological target: GlcNAc(b1-2)Gal(b1-3)GalNAc
Procedure, shortened: as §1

[19] = biological target: GlcNAc(b1-2)Man(a1-3)[GlcNAc(b1-2)Man(a1-6)]Man(b1-4)GlcNAc(b1-4)GlcNAc
Procedure, shortened: as §1

[20] = biological target: GlcNAc(b1-2)Man(a1-3)[GlcNAc(b1-2)Man(a1-6)]Man(b1-4)GlcNAc(b1-4)[Fuc(a1-6)]GlcNAc
Procedure, shortened: as §1

[21] = biological target: GlcNAc(b1-2)Man(a1-3)[GlcNAc(b1-4)][GlcNAc(b1-2)Man(a1-6)]Man(b1-4)GlcNAc(b1-4)GlcNAc
Procedure, shortened: as §1

[22] = biological target: GlcNAc(b1-2)Man(a1-3)[GlcNAc(b1-4)][GlcNAc(b1-2)Man(a1-6)]Man(b1-4)GlcNAc(b1-4)[Fuc(a1-6)]GlcNAc
Procedure, shortened: as §1

[23] = biological target: GlcNAc(b1-2)[GlcNAc(b1-4)]Man(a1-3)[GlcNAc(b1-2)Man(a1-6)]Man(b1-4)GlcNAc(b1-4)GlcNAc
Procedure, shortened: as §1

[24] = biological target: GlcNAc(b1-2)[GlcNAc(b1-4)]Man(a1-3)[GlcNAc(b1-4)][GlcNAc(b1-2)Man(a1-6)]Man(b1-4)GlcNAc(b1-4)GlcNAc
Procedure, shortened: as §1

[25] = biological target: GlcNAc(b1-2)[GlcNAc(b1-4)]Man(a1-3)[GlcNAc(b1-4)][GlcNAc(b1-2)[GlcNAc(b1-6)]Man(a1-6)]Man(b1-4)GlcNAc(b1-4)GlcNAc
Procedure, shortened: as §1

[26] = biological target: GlcNAc(b1-2)[GlcNAc(b1-4)]Man(a1-3)[GlcNAc(b1-4)][GlcNAc(b1-2)[GlcNAc(b1-6)]Man(a1-6)]Man(b1-4)GlcNAc(b1-4)[Fuc(a1-6)]GlcNAc
Procedure, shortened: as §1

[27] = biological target: GlcNAc(b1-2)[GlcNAc(b1-6)]Man(a1-6)[GlcNAc(b1-2)Man(a1-3)]Man(b1-4)GlcNAc(b1-4)GlcNAc
Procedure, shortened: as §1

[28] = biological target: GlcNAc(b1-2)[GlcNAc(b1-6)]Man(a1-6)[GlcNAc(b1-2)Man(a1-3)]Man(b1-4)GlcNAc(b1-4)[Fuc(a1-6)]GlcNAc
Procedure, shortened: as §1

[29] = biological target: GlcNAc(b1-2)[GlcNAc(b1-6)]Man(a1-6)[GlcNAc(b1-4)][GlcNAc(b1-2)Man(a1-3)]Man(b1-4)GlcNAc(b1-4)GlcNAc
Procedure, shortened: as §1

GlcNAc(b1-3)Fuc = biological target: GlcNAc(b1-3)Fuc
Procedure, shortened: as §1

GlcNAc(b1-3)Gal = biological target: GlcNAc(b1-3)Gal
Procedure, shortened: as §1

[30] = biological target: GlcNAc(b1-3)Gal(b1-3)GalNAc
Procedure, shortened: as §1

B1: GNL (Galanthus nivalis) (protein)
chain: MGHHHHHHHHYGTLENGHWLMVGMSIFSKDRTVELRMQDDGKLAIYYNDHCAWQSTAQQVNNAKGAVMQGDGNFCIYDKNGKATWHTNTAAPSGDSHTFVSVQDDGNLVLYKNNGATPIWSSKSNK
Q: For B1, which “glycan array binding signal (z-score)” value [1] is on record?
A: -0.227

Q: What about the “glycan array binding signal (z-score)” value [2] of the same binder?
A: -0.248

Q: What about the “glycan array binding signal (z-score)” value [3] of the same binder?
A: -0.147

Q: And the “glycan array binding signal (z-score)” value (GalNAc(b1-4)GlcNAc6S)?
A: -0.12

Q: What about the “glycan array binding signal (z-score)” value (GalNAc(b1-6)GalNAc) of the same binder?
A: -0.249

Q: What about the “glycan array binding signal (z-score)” value (GalNAc3S(b1-4)GlcNAc) of the same binder?
A: -0.219

Q: And the “glycan array binding signal (z-score)” value (GalNAc3S(b1-4)GlcNAc3S)?
A: -0.224

Q: And the “glycan array binding signal (z-score)” value [4]?
A: -0.151

Q: What about the “glycan array binding signal (z-score)” value (GalNAc4S6S(b1-4)GlcNAc) of the same binder?
A: -0.211

Q: And the “glycan array binding signal (z-score)” value (GalNAc6S(b1-4)GlcNAc)?
A: -0.21

Q: And the “glycan array binding signal (z-score)” value (Glc(a1-4)Glc)?
A: -0.169

Q: What about the “glycan array binding signal (z-score)” value [5] of the same binder?
A: -0.192

Q: And the “glycan array binding signal (z-score)” value (Glc(a1-6)Glc(a1-6)Glc)?
A: -0.292

Q: What about the “glycan array binding signal (z-score)” value [6] of the same binder?
A: -0.121

Q: What about the “glycan array binding signal (z-score)” value (Glc(b1-4)Glc) of the same binder?
A: -0.201

Q: What about the “glycan array binding signal (z-score)” value (Glc(b1-6)Glc) of the same binder?
A: -0.242

Q: And the “glycan array binding signal (z-score)” value (GlcA(b1-3)Gal)?
A: -0.224

Q: And the “glycan array binding signal (z-score)” value (GlcA(b1-3)GlcNAc)?
A: -0.157

Q: What about the “glycan array binding signal (z-score)” value (GlcA(b1-6)Gal) of the same binder?
A: -0.274

Q: What about the “glycan array binding signal (z-score)” value [7] of the same binder?
A: -0.177

Q: And the “glycan array binding signal (z-score)” value [8]?
A: -0.253

Q: And the “glycan array binding signal (z-score)” value [9]?
A: -0.231

Q: What about the “glycan array binding signal (z-score)” value [10] of the same binder?
A: -0.261

Q: And the “glycan array binding signal (z-score)” value [11]?
A: -0.161

Q: And the “glycan array binding signal (z-score)” value [12]?
A: -0.25

Q: What about the “glycan array binding signal (z-score)” value [13] of the same binder?
A: -0.25

Q: What about the “glycan array binding signal (z-score)” value [14] of the same binder?
A: -0.214

Q: What about the “glycan array binding signal (z-score)” value [15] of the same binder?
A: -0.257

Q: And the “glycan array binding signal (z-score)” value [16]?
A: -0.175

Q: What about the “glycan array binding signal (z-score)” value [17] of the same binder?
A: -0.229

Q: What about the “glycan array binding signal (z-score)” value [18] of the same binder?
A: -0.314

Q: And the “glycan array binding signal (z-score)” value [19]?
A: 8.74

Q: And the “glycan array binding signal (z-score)” value [20]?
A: 1.13

Q: And the “glycan array binding signal (z-score)” value [21]?
A: -0.118

Q: And the “glycan array binding signal (z-score)” value [22]?
A: -0.205

Q: What about the “glycan array binding signal (z-score)” value [23] of the same binder?
A: 0.114

Q: What about the “glycan array binding signal (z-score)” value [24] of the same binder?
A: -0.276

Q: What about the “glycan array binding signal (z-score)” value [25] of the same binder?
A: -0.284

Q: What about the “glycan array binding signal (z-score)” value [26] of the same binder?
A: -0.216

Q: And the “glycan array binding signal (z-score)” value [27]?
A: -0.286

Q: And the “glycan array binding signal (z-score)” value [28]?
A: -0.176

Q: What about the “glycan array binding signal (z-score)” value [29] of the same binder?
A: -0.206

Q: And the “glycan array binding signal (z-score)” value (GlcNAc(b1-3)Fuc)?
A: -0.196

Q: And the “glycan array binding signal (z-score)” value (GlcNAc(b1-3)Gal)?
A: -0.239

Q: And the “glycan array binding signal (z-score)” value [30]?
A: -0.141

— the supplement of paper PMC8728848
